Data on 25 molecules can be found in patent US20240409609A1, “REVERSIBLE LYSINE COVALENT MODIFIERS OF EGFR AND USES THEREOF” (Terremoto Biosciences, Inc., priority 2021, published 2024).

Assay [1] concerns the target EGFR T790M C797S L858R in Ba/F3 cells (Homo sapiens (Human), UniProt P00533, C797S/L858R/T790M). As to the kind of experiment: Ba/F3 pEGFR assay (AlphaLISA p-EGFR Tyr1068). It is filed as cell-based. To be noted: 2 hrs treatment. The protocol:
(§1) Cellular activity was determined using the Ba/F3 system for studying oncogenic mutant kinases (Warmuth 2007). […] Transduced cells were maintained in RPMI 1640 with 10% FBS. EGFR WT transduced cells were grown in media supplemented with EGF. To assay cellular activity of inhibitors, cells were treated with inhibitor from 1000X DMSO stock dilutions and incubated for 2 hrs at 37° C. 5% CO2. Subsequently, p-EGFR (Tyr1068) was quantified using a commercial sandwich immunoassay (PerkinElmer AlphaLISA SureFire assay; ALSU-PEGFR) according to the manufacturer's instructions. […] Curr Opin Oncol 19, 55-60 (2007), which is incorporated herein in its entirety.
(In Alpha technology, singlet oxygen from a donor bead excites a nearby acceptor bead.)

Assay [2] deals with EGFR del746-750 T790M C797S in Ba/F3 cells (Homo sapiens (Human), UniProt P00533, C797S/DEL746-750/T790M). As to the kind of experiment: Ba/F3 pEGFR assay (AlphaLISA p-EGFR Tyr1068). It is filed as cell-based. As to conditions: 2 hrs treatment; read-out: pEGFR Ba/F3 del19/T790M/C797S IC50. The protocol:
as §1

The target of assay [3] is EGFR (d746-750) T790M C797S (Homo sapiens (Human), UniProt P00533, C797S/DEL746-750/T790M). As to the kind of experiment: EGFR biochemical assay (AssayQuant chelation-enhanced fluorescence). As to conditions: read-out: AssayQuant EGFR del19/TM/CS IC50; 30 min preincubation, reaction time 150 min.
Assay [4] has as its target EGFR L858R/T790M/C797S (Homo sapiens (Human), UniProt P00533, C797S/L858R/T790M). The description is as above. As to conditions: read-out: AssayQuant EGFR LR/TM/CS IC50; 30 min preincubation, reaction time 150 min.

A value given as a limit tells only on which side of the number the result lay.

Regarding `CN1CCN(Cc2ccc3[nH]/c(=N\C(=O)c4ccnc(OCc5cccc(O)c5C=O)c4)n(CC(C)(C)O)c3c2)CC1` [Compound 112], the IC50 is over 10 µM in assay [1], over 10 µM in assay [2], over 1 µM in assay [3] and over 1 µM in assay [4].
In the case of `CC(=O)Nc1cccc(-c2cnn(-c3cc(C(=O)/N=c4\[nH]c5ccc(CN6CCN(C)CC6)cc5n4CC(C)(C)O)ccn3)c2)c1C=O` [Compound 95], the IC50 turned out to be 0.324 µM in assay [1], 0.988 µM in assay [2], 0.465 µM in assay [3] and 0.00955 µM in assay [4].
The like results for `CN1CCN(Cc2ccc3[nH]/c(=N\C(=O)c4ccc(Oc5cccc(O)c5C=O)s4)n(CC(C)(C)O)c3c2)CC1` [Compound 73] were, in that order, 0.214 µM, 0.351 µM, 0.011 µM and 0.00112 µM.
The like results for `CC(=O)Nc1cccc(C#Cc2cc(C(=O)/N=c3\[nH]c4ccc(CN5CCN(C)CC5)cc4n3CC(C)(C)O)ccn2)c1C=O` [Compound 90] were, in that order, 0.158 µM, 0.0482 µM, 0.00564 µM and 0.00647 µM.
As to `CC(C)(O)Cn1/c(=N/C(=O)c2ccnc(Oc3cccc(O)c3C=O)c2)[nH]c2ccc(CN3CCC(C(C)(C)O)CC3)cc21` [Compound 80], the IC50 in assay [1] was 0.213 µM; in assay [2] it was 0.276 µM; in assay [3], 0.00657 µM; in assay [4] it was 0.00147 µM.
The like results for `CN1CCN(Cc2ccc3[nH]/c(=N\C(=O)c4ccnc(N5CC(Oc6cccc(O)c6C=O)C5)c4)n(CC(C)(C)O)c3c2)CC1` [Compound 104] were, in that order, 5.28 µM, 5.31 µM, 0.201 µM and 0.0922 µM.
The like results for `CN1CCN(Cc2ccc3[nH]/c(=N\C(=O)c4ccc(Oc5cccc(O)c5C=O)cc4)n(CC(C)(C)O)c3c2)CC1` [Compound 105] were, in that order, over 10 µM, over 10 µM, 0.577 µM and 0.174 µM.
Consider `CN1CCN(Cc2ccc3[nH]/c(=N\C(=O)c4cncc(Oc5cccc(O)c5C=O)n4)n(CC(C)(C)O)c3c2)CC1` [Compound 108], for which the IC50 came out at 0.421 µM in assay [1], 0.435 µM in assay [2], 0.0872 µM in assay [3] and 0.00805 µM in assay [4].
For `CN1CCN(Cc2ccc3[nH]/c(=N\C(=O)c4cc(Oc5cccc(O)c5C=O)c5sccc5c4)n(CC(C)(C)O)c3c2)CC1` [Compound 107], the IC50 in assay [1] is 1.22 µM; in assay [2], 1.27 µM; in assay [3] it was 0.0018 µM; in assay [4] it was 0.000904 µM.
The like results for `CN1CCN(Cc2ccc3[nH]/c(=N\C(=O)c4ccc(F)c(Oc5cccc(O)c5C=O)c4)n(CC(C)(C)O)c3c2)CC1` [Compound 110] were, in that order, 0.0406 µM, 0.0434 µM, 0.0012 µM and 0.000119 µM.
The like results for `CN1CCN(C2CCN(c3ccc4c(c3)[nH]/c(=N\C(=O)c3ccnc(Oc5cccc(O)c5C=O)c3)n4CC(C)(C)O)CC2)CC1` [Compound 91] were, in that order, 0.859 µM, 1.2 µM, 0.0235 µM and 0.00653 µM.
The like results for `CC(C)(O)Cn1/c(=N/C(=O)c2ccnc(C#Cc3cccc(O)c3C=O)c2)[nH]c2ccc(CN3CCOCC3)cc21` [Compound 78] were, in that order, 2.06 µM, 1.44 µM, 0.00193 µM and 0.00134 µM.
As to `CN1CCN(Cc2ccc3[nH]/c(=N\C(=O)c4ccnc(Oc5ccc(F)c(O)c5C=O)c4)n(CC(C)(C)O)c3c2)CC1` [Compound 77], the IC50 came out at 0.673 µM in assay [1], 0.462 µM in assay [2], 0.00387 µM in assay [3] and 0.0013 µM in assay [4].
For the molecule `CN1CCN(Cc2ccc3[nH]/c(=N\C(=O)c4ccnc(C#Cc5cncc(O)c5C=O)c4)n(CC(C)(C)O)c3c2)CC1` [Compound 100], the IC50 was over 10 µM in assay [1], over 10 µM in assay [2], 0.0737 µM in assay [3] and 0.0181 µM in assay [4].
Regarding `CC(=O)Nc1cccc(Oc2cc(C(=O)/N=c3\[nH]c4ccc(CN5CCN(C)CC5)cc4n3CC(C)(C)O)ccn2)c1C=O` [Compound 98], the IC50 in assay [1] turned out to be 0.2 µM; in assay [2], 0.204 µM; in assay [3] it was 0.0934 µM; in assay [4], 0.0154 µM.
For `CN1CCN(Cc2ccc3[nH]/c(=N\C(=O)c4ccnc(C#Cc5ccc(F)c(O)c5C=O)c4)n(CC(C)(C)O)c3c2)CC1` [Compound 72] the same measures were 5.17 µM, 1.42 µM, 0.00248 µM and 0.00111 µM.
For `CN1CCN(Cc2ccc3[nH]/c(=N\C(=O)c4cc(Cl)nc(Cc5cccc(O)c5C=O)c4)n(CC(C)(C)O)c3c2)CC1` [Compound 86] the same measures were 0.765 µM, 1.04 µM, 0.013 µM and 0.00384 µM.
For `CN1CCN(C(=O)c2ccc3[nH]/c(=N\C(=O)c4ccnc(Oc5cccc(O)c5C=O)c4)n(CC(C)(C)O)c3c2)CC1` [Compound 71] the same measures were 0.32 µM, 0.4 µM, 0.01 µM and 0.00108 µM.
As for `CC(C)(O)Cn1/c(=N/C(=O)c2ccnc(Oc3cccc(O)c3C=O)c2)[nH]c2ccc(N3CCC(C(C)(C)O)CC3)cc21` [Compound 70], the IC50 in assay [1] was 0.153 µM; in assay [2] it was 0.29 µM; in assay [3], 0.00682 µM; in assay [4] it was 0.000972 µM.
In the case of `CN1CCN(Cc2ccc3[nH]/c(=N\C(=O)c4ccnc(Oc5ccccc5C=O)c4)n(CC(C)(C)O)c3c2)CC1` [Compound 92], the IC50 in assay [1] is 0.0791 µM; in assay [2], 0.23 µM; in assay [3], 0.073 µM; in assay [4], 0.00723 µM.
The like results for `CN1CCN(Cc2ccc3[nH]/c(=N\C(=O)c4ccnc(N(C)Cc5cccc(O)c5C=O)c4)n(CC(C)(C)O)c3c2)CC1` [Compound 96] were, in that order, 1.15 µM, 1.34 µM, 0.0776 µM and 0.013 µM.
For `CN1CCN(Cc2ccc3[nH]/c(=N\C(=O)c4ccnc(-c5cnn(-c6cccc(O)c6C=O)c5)c4)n(CC(C)(C)O)c3c2)CC1` [Compound 88], the IC50 worked out at 0.642 µM in assay [1], 0.0897 µM in assay [2], 0.00774 µM in assay [3] and 0.00564 µM in assay [4].
For `CN1CCN(Cc2ccc3[nH]/c(=N\C(=O)c4ccnc(-c5ccn(-c6cccc(O)c6C=O)n5)c4)n(CC(C)(C)O)c3c2)CC1` [Compound 94], the IC50 in assay [1] turned out to be 1.75 µM; in assay [2], 1.87 µM; in assay [3] it was 0.0392 µM; in assay [4], 0.00827 µM.
The like results for `CN1CCN(Cc2ccc3[nH]/c(=N\C(=O)c4ccnc(Oc5cccc(O)c5C=O)c4F)n(CC(C)(C)O)c3c2)CC1` [Compound 82] were, in that order, 0.231 µM, 0.895 µM, 0.102 µM and 0.00252 µM.
Turning to `COCCN1CCN(Cc2ccc3[nH]/c(=N\C(=O)c4ccnc(Oc5cccc(O)c5C=O)c4)n(CC(C)(C)O)c3c2)CC1` [Compound 75], the IC50 worked out at 0.161 µM in assay [1], 0.212 µM in assay [2], 0.0101 µM in assay [3] and 0.00119 µM in assay [4].
